One test concerns HSkMC. The experiment in a line: cytotoxicity call (relative viability < 0.9). The following applies: 10 µM.
The subject of a further test is HepG2. The experiment in a line: cytotoxicity call (relative viability < 0.9). The settings on record: 10 µM.
In a further test the test system is S. aureus RN4220. The experiment in a line: growth inhibition call (relative growth <= 0.2). The following applies: 50 µM.

Molecules are shown by their SMILES. This is one part of the list.

For `O=C(C[C@@H]1C[C@H]2c3cc(NC(=O)C4CCOCC4)ccc3O[C@H]2[C@H](CO)O1)NCc1ccc(Cl)cc1`, the cytotoxicity call in the test on HSkMC and in the test on HepG2 was “inactive” in each case. Further, the growth inhibition call in the test on S. aureus RN4220 was “inactive”.

For the compound `C[C@@H]1CCCCO[C@@H](CN(C)Cc2ccncc2)[C@@H](C)CN([C@H](C)CO)C(=O)c2cc(NC(=O)Nc3ccc(F)cc3)ccc2O1`, the cytotoxicity call in the test with HSkMC and in the test with HepG2 was “inactive” each time. In addition, the growth inhibition call with S. aureus RN4220 is “inactive”.

For `C[C@@H]1CN([C@@H](C)CO)C(=O)CCCn2cc(nn2)CO[C@H]1CN(C)C(=O)Nc1ccc(N2CCCCC2)cc1`, the cytotoxicity call in the test with HSkMC and in the test on HepG2 was “inactive” each time. Further, the growth inhibition call in the test with S. aureus RN4220 was “inactive”.

Regarding `Cc1ccc(S(=O)(=O)Nc2ccc3c(c2)C(=O)N([C@H](C)CO)C[C@@H](C)[C@H](CN(C)Cc2ccccc2)OCCCC[C@H](C)O3)cc1`, the cytotoxicity call in the test on HSkMC is “inactive”. Further, the cytotoxicity call in the test with HepG2 is “active”. In addition, in the test on S. aureus RN4220, the growth inhibition call is “inactive”.

For `N[C@H]1CS(=O)(=O)c2ccccc21`, the cytotoxicity call in the test on HSkMC and with HepG2 was “inactive” in each case. Besides, the growth inhibition call in the test on S. aureus RN4220 was “inactive”.

In the case of `COCC(=O)N1CC[C@]2(CC1)CN([C@H](CO)c1c2c2ccc(cc2n1C)OC)C(=O)Nc1ccccc1F`, the cytotoxicity call with HSkMC and in the test on HepG2 was “inactive” each time. For the same compound, in the test with S. aureus RN4220, the growth inhibition call was “inactive”.

Turning to `Cc1noc(C)c1NC(=O)Nc1cccc2c1O[C@@H](CN(C)Cc1ccc(-c3ccccc3)cc1)[C@H](C)CN([C@H](C)CO)C2=O`, the cytotoxicity call in the test on HSkMC and in the test with HepG2 was “inactive” in each case. Also, the growth inhibition call in the test on S. aureus RN4220 was “inactive”.

With `C[C@@H]1CN([C@H](C)CO)C(=O)c2cccc(NS(=O)(=O)c3ccc(F)cc3)c2O[C@@H]1CN(C)S(=O)(=O)c1cn(C)cn1`, the cytotoxicity call in the test with HSkMC and in the test on HepG2 was “inactive” each time. For the same compound, the growth inhibition call in the test on S. aureus RN4220 is “inactive”.

For the compound `C[C@@H]1CCCCO[C@H](CN(C)Cc2ccc(C(=O)O)cc2)[C@@H](C)CN([C@H](C)CO)C(=O)c2cc(NC(=O)Nc3ccc(C(F)(F)F)cc3)ccc2O1`, the cytotoxicity call with HSkMC and in the test on HepG2 was “inactive” throughout. Also, the growth inhibition call in the test with S. aureus RN4220 was “inactive”.

Take `Nc1ncccc1-c1nc2ccc(-c3ccccc3)nc2n1-c1ccc(C2(N)CCC2)cc1`: the cytotoxicity call in the test with HSkMC and in the test with HepG2 was “active” each time. The growth inhibition call in the test with S. aureus RN4220 was “inactive”.

On to `COc1cccc(C#Cc2cnc3c(c2)C(=O)N([C@H](C)CO)C[C@H](C)[C@H](CN(C)C(=O)C2CCOCC2)O3)c1`, for which the cytotoxicity call in the test with HSkMC and in the test on HepG2 was “inactive” in each case. Besides, the growth inhibition call in the test with S. aureus RN4220 is “inactive”.

As for `Cc1noc(C)c1NC(=O)Nc1ccc2c(c1)CC(=O)N([C@H](C)CO)C[C@H](C)[C@H](CN(C)Cc1ccc(-c3ccccc3)cc1)O2`, the cytotoxicity call in the test with HSkMC and in the test with HepG2 was “inactive” each time. The growth inhibition call in the test with S. aureus RN4220 is “inactive”.

On to `c1cncc(-c2nc3ccc4ccccc4c3c3c2CCCC3)c1`, for which the cytotoxicity call in the test on HSkMC and with HepG2 was “inactive” throughout. For the same compound, the growth inhibition call in the test with S. aureus RN4220 is “inactive”.

Consider `CC(=O)OCC(=O)C1(O)C(C)CC2C3CCC4=CC(=O)C=CC4(C)C3(F)C(O)CC21C` (stereo not given), for which the cytotoxicity call with HSkMC and in the test on HepG2 was “inactive” in each case. For the same compound, in the test with S. aureus RN4220, the growth inhibition call was “inactive”.

For the compound `Cc1ccc(S(=O)(=O)N(C)C[C@@H]2Oc3ccc(NC(=O)Cn4cnnn4)cc3CC(=O)N([C@@H](C)CO)C[C@H]2C)cc1`, the cytotoxicity call with HSkMC and in the test with HepG2 was “inactive” each time. Also, the growth inhibition call in the test with S. aureus RN4220 was “inactive”.

Regarding `Cc1noc(C)c1NC(=O)N(C)C[C@@H]1Oc2ccc(NC(=O)NC(C)C)cc2CC(=O)N([C@H](C)CO)C[C@H]1C`, the cytotoxicity call in the test with HSkMC and in the test on HepG2 was “inactive” in each case. The growth inhibition call in the test on S. aureus RN4220 was “inactive”.

On to `O=C(C[C@@H]1CC[C@H](NS(=O)(=O)c2ccccc2)[C@@H](CO)O1)NCc1ccncn1`, for which the cytotoxicity call in the test with HSkMC and in the test with HepG2 was “inactive” in each case. In the test on S. aureus RN4220, the growth inhibition call is “inactive”.

For `C[C@H](CO)N1C[C@H](C)[C@H](CN(C)Cc2ccc(C(=O)O)cc2)Oc2ccc(NC(=O)Nc3cccc4ccccc34)cc2CC1=O`, the cytotoxicity call in the test with HSkMC and with HepG2 was “inactive” throughout. Besides, the growth inhibition call in the test with S. aureus RN4220 was “inactive”.

As to `CC(C)[Si](C#CCCCC#N)(O[C@H](c1ccccc1)c1cn(Cc2cccc(Cl)c2)nn1)C(C)C`, the cytotoxicity call in the test with HSkMC and in the test with HepG2 was “inactive” throughout. For the same compound, the growth inhibition call with S. aureus RN4220 is “active”.

For the compound `C[C@@H]1CCCCO[C@H](CN(C)S(=O)(=O)c2cccs2)[C@H](C)CN([C@@H](C)CO)C(=O)c2cc(NC(=O)Nc3ccc4c(c3)OCO4)ccc2O1`, the cytotoxicity call in the test on HSkMC and in the test with HepG2 was “inactive” throughout. In addition, the growth inhibition call with S. aureus RN4220 was “inactive”.

With `CN(Cc1ccc(/C=C/C(=O)Nc2ccc(-c3ccccc3)cc2N)cc1)CC12CC3CC(CC(C3)C1)C2`, the cytotoxicity call with HSkMC and with HepG2 was “active” throughout. Moreover, the growth inhibition call in the test with S. aureus RN4220 is “inactive”.

On to `C[C@H]1CCCCO[C@@H](CN(C)S(=O)(=O)c2ccccc2)[C@@H](C)CN([C@@H](C)CO)C(=O)c2cc(NC(=O)Nc3ccccc3)ccc2O1`, for which the cytotoxicity call in the test on HSkMC and in the test on HepG2 was “inactive” throughout. Further, in the test on S. aureus RN4220, the growth inhibition call is “inactive”.

Turning to `O=C1N(CCS(=O)(=O)c2ccccc2)Cc2ccccc2C[C@@]12COC(c1ccc(OCCCO)cc1)=N2`, the cytotoxicity call in the test with HSkMC is “active”. The cytotoxicity call in the test with HepG2 was “inactive”. Moreover, the growth inhibition call with S. aureus RN4220 is “inactive”.

Turning to `C[C@@H]1CN([C@@H](C)CO)C(=O)c2cc(NS(=O)(=O)c3ccc(Cl)cc3)ccc2O[C@@H](C)CCCCO[C@@H]1CN(C)C(=O)Nc1cccc2ccccc12`, the cytotoxicity call in the test on HSkMC and in the test with HepG2 was “inactive” in each case. For the same compound, the growth inhibition call in the test on S. aureus RN4220 was “inactive”.

Turning to `C[C@H]1CN([C@@H](C)CO)C(=O)c2cccc(NC(=O)c3cnccn3)c2O[C@H]1CN(C)S(=O)(=O)c1ccc(Cl)cc1`, the cytotoxicity call in the test on HSkMC (human skeletal muscle cells) and in the test with HepG2 was “inactive” in each case. The growth inhibition call with S. aureus RN4220 was “inactive”.

The record behind these values is the antibiotic and cytotoxicity screens of Wong et al. (2023).
